Laboratory results taken from PubChem BioAssay AID624171 (National Center for Advancing Translational Sciences (NCATS), 2012).
In all, about 410,000 compounds went through this assay and about 1,200 (0.29%) were called active. The shares of active, inactive and inconclusive entries below differ from those in the screen. Calls follow the shape of the dose curve; as a rule, active = well fitted activation curve with a large enough effect; inconclusive = small, poorly fitted or top-dose-only effect; inactive = flat fitted curve, though single readings scatter. Potencies beside an inconclusive call are fits to weak or partial responses and may not hold up.

Experiment: qHTS of Nrf2 Activators; also: nearly all actives have a fitted effect of over 65% in size
Conditions: AREc32 ARE-luciferase reporter (MCF7-derived line), luminescence, 24 h; series mostly up to 46.1 µM
In short: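 Quantitative high-throughput format: AREc32 reporter cells, 1000 per well, received compound by pin transfer and were incubated 24 hr at 37 deg C, 5% CO2, before Steady-Glo luminescence detection.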
Potency is read from the fitted curve at half-maximal effect; tags tell the direction and shape of the fitted curve.

SMILES	Potency
O=C1NC(=Nc2cccc(O)c2)S/C1=C\c1cccc([N+](=O)[O-])c1	inconclusive: 11.2 µM [activator, partial curve, poor fit]
COC(=O)c1sc(N)c(C(=O)OC)c1COC(=O)[C@@H](NS(=O)(=O)c1cccc(Cl)c1)C(C)C	inactive
COc1ccc2oc3cc(Cl)ccc3c(=O)c2c1	active: 7.94 µM
C#CCOCCOCCOCCNc1nc(N2CCN(C(=O)CCCCCCCCCCNC(=O)Cn3cc(CCCCCN)nn3)CC2)nc(N2CCN(C(=O)CCCCCCCCCCNC(=O)[C@H]([C@@H](C)CC)n3cc(CCCCCN)nn3)CC2)n1	inactive
COc1ccccc1-n1nnnc1S(=O)(=O)Cc1ccc(Cl)cc1	inconclusive: 3.16 µM [activator, single point]
CCOc1ccc(Nc2oc(-c3ccc(COc4ccc(OC)cc4)o3)nc2C#N)cc1	inactive
Cc1ccc(NC(=O)C(Cc2c[nH]c3ccccc23)NC(=O)OC(C)(C)C)c(C)c1 (stereo not given)	inactive
COc1ccc(C2NC(=S)NC3=C2CCCC3=C2SCCS2)cc1 (stereo not given)	active: 3.16 µM
CCOc1cc(/C=C2\CCC/C(=C\c3cc(Cl)c(O)c(OCC)c3)C2=O)cc(Cl)c1O	inconclusive: 2.82 µM [activator, partial curve, poor fit]
COc1ccc(C(C#N)N2CCC(c3ccccc3)=N2)cc1 (stereo not given)	inconclusive: 17.8 µM [activator, single point]
C=C(C)C(=O)Oc1ccc(N=Nc2ccc(C)cc2)ccc1=O	inconclusive: 17.8 µM [activator, single point]
C[n+]1c2n(c3ccccc31)N=C(c1ccc(Cl)cc1)CS2	inconclusive: 12.6 µM [activator, partial curve]
COC(=O)c1cc2c(=O)c3ccccc3oc2nc1C	active: 7.94 µM
CC(=O)c1cccc(NC(=O)c2cc(Cl)sc2Cl)c1	inconclusive: 0.562 µM [activator, full curve, poor fit]
O=C(c1ccco1)N1CCN(C(=O)c2ccc(-c3ccc([N+](=O)[O-])cc3)o2)CC1	inactive
CCn1cc(C(=O)NCc2ccc3c(c2)OCO3)c(=O)c2cc(F)c(N3CCN(C)CC3)cc21	inactive
Cc1nn(Cc2ccc(Cl)cc2Cl)c(C)c1NC(=O)CCl	inconclusive: 11.2 µM [activator, partial curve]
O=C(NC(=S)Nc1cccc2cccnc12)c1cccs1	active: 8.91 µM
CC(=NNC(=S)N1CCC1)c1ccccn1	inconclusive: 5.62 µM [activator, single point]
Cc1cccc2sc(NC(=O)C3CCN(C(=O)c4ccco4)CC3)nc12	inconclusive: 12.6 µM [activator, partial curve]
CCCCSc1nc(O)c(C2OC(=O)c3c2ccc(OC)c3OC)c(=O)n1C (stereo not given)	inconclusive: 31.6 µM [activator, single point]
COc1cccc(NC(=O)NC2(C(F)(F)F)Oc3ccccc3O2)c1	inconclusive: 17.8 µM [activator, single point]
Clc1nc(-c2ccccc2)cc(-c2ccccc2)n1	active: 8.91 µM
CC1(C)C2C/C(=N\O)C(C)(/[N+]([O-])=C/c3cccc([N+](=O)[O-])c3)CC21 (stereo not given)	inconclusive: 10 µM [activator, partial curve, poor fit]

SMILES	Potency
CC1CN(C(=O)/C=C/c2ccc([N+](=O)[O-])s2)CC(C)O1 (stereo not given)	inconclusive: 3.55 µM [activator, full curve, poor fit]
O=S(=O)(c1ccc(Br)s1)N1CCN(c2cccc(C(F)(F)F)c2)CC1	inactive
O=C1NC(=O)N2CCSC2(Cc2ccccc2)N1 (stereo not given)	inconclusive: 25.1 µM [activator, single point]
CN1CCN(c2ccc(NC(=O)c3ccc([N+](=O)[O-])o3)cc2Cl)CC1	inconclusive: 3.55 µM [activator, single point]
COCCn1c(SCC(=O)Nc2cc(Cl)ccc2OC)nc2c([nH]c3ccccc32)c1=O	inactive
N/C(Cc1cccc2ccccc12)=N\O	inactive
C=CCNc1nc2c(c(=O)n(C)c(=O)n2C)n1Cc1ccc(F)cc1	inactive
O=C(CCn1c(=O)c2sccc2n(Cc2ccccc2F)c1=O)NCc1ccc2c(c1)OCO2	inactive
COc1cccc(NC2=C(Cl)C(=O)OC2OC(=O)c2ccco2)c1 (stereo not given)	inconclusive: 28.2 µM [activator, single point]
O=C(C=Cc1cccs1)c1ccc(Cl)s1	active: 22.4 µM
COc1ccc(CCN(C)C(=O)COC(=O)/C=C/c2ccc(C)o2)cc1OC	inactive
O=[N+]([O-])c1ccc2[nH]c3nc4ccccc4nc3c2c1	inconclusive: 3.55 µM [activator, single point]
CCCOP(=O)(OCCC)c1c([N+](=O)[O-])cc(C(F)(F)F)cc1[N+](=O)[O-]	inconclusive: 12.6 µM [activator, single point]
Nc1cc(Cl)nc(N/N=C/c2c(O)ccc3ccccc23)n1	inconclusive: 3.16 µM [activator, partial curve, poor fit]
COc1ccccc1C(=O)NC(=S)Nc1cccc2cc(O)ccc12	inactive
CC(C)Cc1nc(N2CCOCC2)c(C#N)c2c1COC(C)(C)C2	inactive
COc1ccc(OC)c2nc3c(C(=O)NCCN(C)C)cccc3nc12	inactive
CC(C(c1ccc2c(c1)OCO2)c1c(N)n(C)c(=O)n(C)c1=O)[N+](=O)[O-] (stereo not given)	inconclusive: 25.1 µM [activator, single point]
O=C(CN1C(=O)S/C(=C\c2ccccc2F)C1=O)Nc1ccccc1O	inconclusive: 15.8 µM [activator, partial curve, poor fit]
Cn1c(/C=C/c2cccc(Br)c2)nc2ccccc2c1=O	inconclusive: 1.78 µM [activator, full curve, poor fit]
O=C(Nc1ccccc1)Nc1ccccc1C(=O)NCc1ccco1	inconclusive: 15.8 µM [activator, single point]
Cc1nn2c3c(cnc2c1-c1ccccc1)C(=O)CC(c1ccco1)C3 (stereo not given)	active: 1.26 µM
O=C(c1c(Cl)nc2sccn12)N1CCCc2ccccc21	inconclusive: 15.8 µM [activator, single point]
Cc1ccc(O)c(NC(=O)CSc2n[nH]c(C)c2[N+](=O)[O-])c1	active: 11.2 µM

SMILES	Potency
Cc1ccc(CCNC(=O)c2ccc3c(=O)n(-c4ccc(C)cc4)c(=O)[nH]c3c2)cc1	inactive
Cc1ccc(CN2CCN(Cc3ccc(C)s3)CC2CCO)cc1 (stereo not given)	inactive
COc1ccc(NC(=O)CSc2ccc(-c3ccco3)nn2)cc1OC	inconclusive: 3.55 µM [activator, full curve]
COc1ccc(C(=O)/C(C#N)=N/Nc2cccc([N+](=O)[O-])c2)cc1	inconclusive: 11.2 µM [activator, partial curve]
CNc1ccccc(-c2ccc3ccccc3n2)c1=O	inconclusive: 12.6 µM [activator, partial curve]
Oc1cccc(-c2nc3ccccc3s2)c1	inconclusive: 0.562 µM [activator, full curve, poor fit]
COc1ccc2c(c1)CC/C(=C\c1ccc(C)o1)C2=O	inconclusive: 17.8 µM [activator, single point]
Cc1ccc(NC2=C(Cl)C(=O)c3ccccc3C2=O)cc1	inconclusive: 2.82 µM [activator, partial curve, poor fit]
CC(=O)C[C@H](O)CC(=O)[C@@H]1OC(=O)[C@H](C)C/C=C\Cc2ccccc21	inactive
Cn1ncc(SCc2ccccc2)c(Cl)c1=O	inconclusive: 11.2 µM [activator, partial curve, poor fit]
Nc1ccccc1-c1nc2ccccc2s1	inconclusive: 2.82 µM [activator, full curve, poor fit]
CC(=O)Nc1c(Cl)c(Cl)c2c(c1Cl)C(=O)c1cc(Cl)ccc1-2	inconclusive: 12.6 µM [activator, partial curve]
Clc1cnc(N/N=C/c2cccs2)c(Cl)c1	inconclusive: 3.16 µM [activator, single point]
C=CCN1C(=O)/C(=C\c2ccco2)C(C(=O)OC)=C1C	inconclusive: 17.8 µM [activator, partial curve, poor fit]
O=C(Nc1ccccc1)c1sc(Cl)nc1-c1ccccc1	inconclusive: 15.8 µM [activator, single point]
Cc1ccc2c(c1)/C(=C/c1ccccc1F)C(=O)N2	inconclusive: 2.24 µM [activator, partial curve, poor fit]
Cn1c(=O)c2c(ncn2CC(=O)N/N=C/C(Br)=C/c2ccccc2)n(C)c1=O	inconclusive: 5.62 µM [activator, single point]
Cc1ccc(O)c(N/C=C/C(=O)c2ccc(F)cc2)c1	inconclusive: 20 µM [activator, single point]
Cn1c(=NC(=O)CCl)sc2ccccc21	inconclusive: 3.16 µM [activator, single point]
CCN1CCN(c2sc(S(=O)(=O)CC)nc2S(=O)(=O)c2ccc(C)cc2)CC1	inconclusive: 11.2 µM [activator, partial curve, poor fit]
C[C@H]1CNC(=O)c2c(C(=O)Nc3cccc(Cl)c3)ncn21	inactive
Cc1c(Cl)cccc1NC(=S)N=Nc1c(O)n(CN2CCOCC2)c2ccccc12	inconclusive: 15.8 µM [activator, single point]
